Test results: the supplement of paper PMC11417369
± gives the standard deviation of the averaged measurements. This is one part of the list.

tested on: PfAP2-G AP2 domain (GST-tagged); assay: gcPBM binding intensity (ln(normalized median fluorescence intensity)); higher = stronger DNA binding
In short: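 Binding intensity values are the highest Masliner-normalised natural-log median intensity among replicate spots of either probe orientation. The binding step lasted 1 h in 1× PBS with 1% milk, 0.2 mg/ml BSA, 0.5% salmon testes DNA and 0.03% Triton X-100, using GST-tagged P. falciparum DNA-binding domains expressed in E. coli on an Agilent 4 × 180k array of primer-extended double-stranded 36-bp intergenic genomic probes plus negative controls. Alexa488 anti-GST antibody and a 488 nm scan detected bound protein.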

Point of comparison: “TAACAAAACCTTATATGTACACACATATACATCACA [XGTACX_site6772]”, “gcPBM binding intensity (ln)” value 11.2 ± 0.63. Against it:
- GCACGCTGTATGAATGCACACATTCATAGAATTGCT [CACACA_site8852] — lower, 9.9 ± 0.11
- TTATATATATAGAAGTGTACAAAATTTCCTAGACCT [XGTACX_site3900] — within error, 11 ± 0.49
- ATTTCACAGAAACACACACACAATATATTTCCTTTT [CACACA_site3904] — lower, 10.1 ± 0.18
- CCTTGAACCCCACTAACACACACACCCACGCTCAGA [CACACA_site8976] — within error, 10.3 ± 0.33
- TTTCATAAATAAATATGTACATAATTAATAATAAAT [XGTACX_site5882] — within error, 11.3 ± 0.81
- GAAAAATGAAGAGAACAAAATTTTATGATATATATA [GTGCAC_negctrl_site231] — lower, 9.71 ± 0.13
- TATACATAGATATATACACACATATATTTATATACA [CACACA_site6328] — lower, 9.77
- ATTACAAAAAAAAAAAAAAAAAAAAAAAAAAAAAAA [CACACA_negctrl_site448] — lower, 9.76 ± 0.27
- ATATGTATATATATTTGTACGTAAAATGAAATCTAA [XGTACX_site213] — within error, 11.6 ± 0.86
- TTAAAAATGAACATATGTACATATATATATATATAT [XGTACX_site7923] — the same, 11.2 ± 0.55
- TTATCATTTTAAATCACACACATATATATATATATA [CACACA_site2849] — within error, 10.1 ± 0.56
- TACCTTTTATTAATGTGTACCTAAAATATAATACTT [XGTACX_site192] — within error, 11.3 ± 0.64
- AAAAAGGTTATTGGTACACACATATGTATTTATATA [CACACA_site4464] — the same, 11.2 ± 0.74
- ACTACAAGGCAATACAGTACATATAAATGTCATAAT [XGTACX_site8468] — within error, 10.8 ± 0.51
- AAAAGAATTACTTTCACACATATATATCTGTAAATA [CACACA_site5798] — lower, 9.65 ± 0.16
- TACATATTTATATACACACACACCCTAAAAATATAT [CACACA_site6861] — lower, 10.2 ± 0.17
- AATAATGAAGCTTATGCACACGTTCATTATTTATAT [CACACA_site5736] — lower, 10
- ATAATTTTTTTTTTTTTTTTTTGAAAGTAGCATATG [CACACA_negctrl_site732] — lower, 9.74 ± 0.14
- TATTTTATGTAAATTGGTACACATATGTCAGTAAAA [XGTACX_site7111] — the same, 11.2 ± 0.79
- GATGCTAAAATTTATACACACAAAAAAAAAAAATTC [CACACA_site3284] — lower, 10.1 ± 0.23
- AAAAAAAAAAAATATACACACACACCGACACATAAA [CACACA_site9270] — lower, 10.14 ± 0.021
- TTTTGAATATTTGGTCGTACGTAAAAATAGATAATT [XGTACX_site5755] — within error, 11.5 ± 0.98
- TTTCATATTTTGTCCTGTTTTTTTTTTTTTTTTCTT [CACACA_negctrl_site993] — lower, 10.2 ± 0.099
- TTGAATGAAAAAATTTGTACTCATATAAATAATTTA [XGTACX_site4628] — within error, 11.1 ± 0.79
- AAAATATAAAAAGTCACACATATATATATTTATTTA [CACACA_site4872] — lower, 9.7 ± 0.028
- AGGAGAAAAGATAAAGACTTCAAGAAAAAAAAATAA [TGCATGCA_negctrl_site258] — lower, 9.67 ± 0.028
- CAATAATTTTTTGTGGGTACAAATAATTTTTTAAAT [XGTACX_site2407] — the same, 11.2 ± 0.88
- TTTATTATAATATGTTGTACAAGACGTTTCAGTATA [XGTACX_site4486] — the same, 11.2 ± 0.69
- AAATTATCTTAATAGGATGTTCAAGGAGAAAGATGA [CACACA_negctrl_site1032] — lower, 9.905 ± 0.049
- TAAATTAATACCTATGCACACATTTTTTTTTTTAAA [CACACA_site1238] — lower, 10.01 ± 0.057
- AAACCCTATTCAATGCAATAATTTTATAATTTTTTT [TGCATGCA_negctrl_site434] — lower, 9.46 ± 0.31
- TTTTTTTTAAATATCACACACATATAATATATTCTA [CACACA_site3668] — lower, 9.88 ± 0.15
- CTTAAATTTTTAAATACACACATACACCCATACACA [CACACA_site4461] — within error, 10.7 ± 0.51
- TAGCGGCGGTATCATGCACACGTATATATTGTAACA [CACACA_site8453] — lower, 10.15 ± 0.099
- ATAGTTTTATATAAATGTACAAATGATTTCAAATAG [XGTACX_site8236] — within error, 10.7 ± 0.45
- AACATGTATATATTATGTACATATGTTAAAATGATA [XGTACX_site6217] — within error, 11.1 ± 0.59
- TTAGCAACTATTACTACACACATTTGTATATAACTT [CACACA_site6850] — lower, 10.09 ± 0.028
- GTGGAAATATAACACATTTTTTTTAATAATTATATT [TGCATGCA_negctrl_site522] — lower, 9.67 ± 0.16
- TTACCTTTTTCTAATGGTACACATAAAATATCATTT [XGTACX_site6825] — within error, 11.1 ± 0.73
- TTTTCTTACACGAATTTTAAATTCAATATTAAACAT [CACACA_negctrl_site286] — lower, 10.1 ± 0.14
- GAGTTAATTTTTTCGTGTACTTGAAAATATTTTTTT [XGTACX_site6392] — within error, 11.4 ± 0.89
- TATATATATATATATATACACACGTATATATATACA [CACACA_site4155] — lower, 10 ± 0.45
- ATATCTTTGCAAAGATGTACTTGTAAAAATATATGA [XGTACX_site768] — within error, 11.3 ± 0.95
- TAATATCAATATAAAGTACACACTATAGTATGTATT [CACACA_site2280] — within error, 11.3 ± 0.87
- TTTATATTTAAATATATATGAGAAAACACAAAATAT [TGCATGCA_negctrl_site211] — lower, 10.105 ± 0.007
- TAAAAGTAAAGACATGCATGCATTGGTATCTTTTAC [TGCATGCA_site665] — lower, 9.81 ± 0.17
- GACCCACTTTTCTGCACACATAAAAAATATATAAAT [CACACA_site4483] — within error, 10.5 ± 0.38
- TATAATAAAACTTTTACACACTTTAAAAAAAAAAAA [CACACA_site6392] — lower, 9.75 ± 0.23
- GCTTCATTTTAAACTTGTACTTATTTTTTGGTAAAT [XGTACX_site8879] — within error, 11.4 ± 0.96
- TTGTTTGTTGTAACGTGTACAGATAAAAATAAAGGG [XGTACX_site375] — within error, 11.5 ± 0.93
- TTCATATTATAGTGCACACAAAAATATATATATGGT [CACACA_site2855] — within error, 10.7 ± 0.39
- TCTCTCATTTATTTTTGTACTTAATCCAGCACGTTT [XGTACX_site1369] — within error, 11.1 ± 0.69
- ACATATTAATTATAAAGTACATATATATATATATAT [XGTACX_site4540] — within error, 11.3 ± 0.79
- TAGTTACTTCTTATATAAAATATGTATATAAAAATA [GTGCAC_negctrl_site190] — lower, 9.87 ± 0.18
- TTCCTTTTGAACTCTCGTACGCGTAGGTGTTATTAT [XGTACX_site6264] — the same, 11.2 ± 0.79
- TATTAAAAGTAAAAAACACACATGGATATATACATA [CACACA_site3959] — lower, 10.02 ± 0.042
- CATTTTTAAAAAAATTGTACAAAACATATATGTGTA [XGTACX_site3396] — within error, 10.9 ± 0.4
- TTTTTTTTTTGATGTTGTACTTATATACTATATAAT [XGTACX_site2778] — within error, 11.3 ± 0.86
- GTTGTGTAATTCGTAACACACATAAAATATAAATAA [CACACA_site7799] — lower, 10.2 ± 0.17
- AAAAAAAAAAAAAAAAAAAAAAAAATATATATATAT [CACACA_negctrl_site436] — within error, 11.1 ± 0.44
- TTACTATATAATATGTGTACACAACATATAATATAT [XGTACX_site1383] — within error, 11.6 ± 0.91
- TAAATAAATAAAAAAACACACATATAAATATAAATA [CACACA_site7815] — lower, 9.67 ± 0.17
- TGTTTCCTATTTTGTATGCACTTTTTGTCATAATTA [GTGCAC_site9921] — lower, 10.3 ± 0.23
- TATATTGCCCTTCACACACACACATATATATATATA [CACACA_site2492] — lower, 10.3 ± 0.26
- TAAAAATGTTGACACACACACATAAATATATTTTAT [CACACA_site7227] — within error, 10.4 ± 0.34
- ATTTTTATACCTAAGTGTACATGATGTTTTCTTTTT [XGTACX_site973] — the same, 11.2 ± 0.73
- TATTATATAATAAAAATTATTATTATTTGTATAAAT [CACACA_negctrl_site195] — lower, 9.69 ± 0.22
- TATGTGTGACAAAATTGTACGGTCTCTTTATTTTGT [XGTACX_site2679] — within error, 10.8 ± 0.42
- TATACGGACTCTAAGTGTACTTAAAATAATTCAAAC [XGTACX_site3606] — within error, 11.5 ± 0.84
- TTTATAGTTTTTAATAGTACACATATTTTTAAGTAT [XGTACX_site5498] — the same, 11.2 ± 0.86
- TTTTGTGGAGGATGGTGTACGGTATTGTATTATTAC [XGTACX_site1942] — within error, 11.1 ± 0.64
- TATCATAAAATATGTAGTACGTATATATATAAAAAT [XGTACX_site5455] — within error, 11.5 ± 0.8
- CATATACTCGGACACACACACACACCGACAAAAAAA [CACACA_site4433] — the same, 11.2 ± 0.73
- TAAACAGACATACATACACACATACATACAGACATA [CACACA_site6997] — lower, 10.1 ± 0.18
- AAAAAAAAAGTATATATATATTTAAGGAATTCTCTC [GTGCAC_negctrl_site454] — lower, 9.885 ± 0.064
- CAACCTTTTTTGTTGGTGCATAATTTTTTTTTCTTT — lower, 10.3 ± 0.11
- ATATATATATATTGCACACATATAAATATATATATT [CACACA_site807] — within error, 10.1 ± 0.63
- ATACATTTTTTTTTCACACATATATATATATTTAAT [CACACA_site5995] — lower, 9.98 ± 0.12
- CTCACGTAGCTTGATGCATGCAAACTTGAGTAAAAG [TGCATGCA_site409] — lower, 9.925 ± 0.078
- TTTATAAAATTTATTGCACACAATTATTTTATAATT [CACACA_site2489] — lower, 9.97 ± 0.085
- AATATATAGCTAAAAACACACAAATATATACTCATA [CACACA_site5904] — lower, 9.9 ± 0.042
- ATATGTACGCAAGGTGCACACTGGTGCATTAAAAAA [CACACA_site1801] — within error, 11.6 ± 1.2
- GTATATATATATATATGTACATATATGTAGATATAT [XGTACX_site5431] — within error, 11.1 ± 0.54
- AATATATCCTATTCGAACAAAAATACATGCACATAT [CACACA_negctrl_site1058] — lower, 10.14 ± 0.042
- TTTTATTTTTTCTCACGTACAAATATATAATTTTTT [XGTACX_site6952] — within error, 11.1 ± 0.53
- TACATATGGCACATATGTACACACGTATAGATAATA [XGTACX_site4123] — within error, 11.3 ± 0.77
- ATGAATATAAAATATACACACTTATATATCGAATGA [CACACA_site6240] — lower, 9.79 ± 0.13
